In ChEMBL document CHEMBL4888484, “Replenishing the malaria drug discovery pipeline: Screening and hit evaluation of the MMV Hit Generation Library 1 (HGL1) against asexual blood stage Plasmodium falciparum ,using a nano luciferase reporter read-out” (2022):
Screen size: about 150,000 compounds; about 540 (0.36%) showed an effect of 50% or more. This is one part of the list.

What follows are molecules tested on Plasmodium falciparum (assay: Primary screen in NF54 nanoGlo assay, in single point, at 2uM, 72h; a lower Z score goes with more inhibition). Settings: timepoint 72 hour.
Type: functional, Erythrocyte

Compound | % Inhibition | Z score
O=C(NCc1ccccc1)c1c(OCC2CC2)cc(=O)n2c1CCOCC2 | -2% | 0.27
O=C(CNC(=O)c1ccc(N2CCCC2)c(F)c1)NC1CCCCC1 | -2% | 0.31
Cc1cc(C)cc(N2CCC(N3CCN4CCNC(=O)[C@@H]4C3)CC2)c1 | 0% | -0.02
Cc1cccc(N2CCN(C(=O)c3cn4c(n3)COCC4)CC2)c1C | -8% | 1.36
CS(=O)(=O)c1ccc(C(=O)Nc2ccccc2C(=O)Nc2ccc3c(c2)OCCO3)cc1 | -1% | 0.26
N#Cc1ncn(CC(=O)NCCc2cccc(Cl)c2Cl)c1C#N | -12% | 2.12
O=C(c1ccn2nnnc2c1)N1C[C@@H]2CC[C@H]1CN(c1ncccn1)C2 | -14% | 1.36
COc1cc(-n2cnnn2)ccc1NC(=O)c1cnc2ccccc2n1 | 10% | -1.31
CC1CN(Cc2ccccc2)CC2(CCN(C(=O)C(C)O)CC2)O1 (stereo unspecified) | -6% | 1.02
OC1(Cn2cc(-c3ccncc3)cn2)CCC1 | 1% | -0.12
CC(=O)c1ccc(=O)n(CC[C@H]2CCCO2)n1 | -5% | 0.85
c1ccc(N2CCN(Cc3nc(-c4cccs4)no3)CC2)cc1 | 11% | -1.88
CN(C)[C@H]1CCN(C(=O)c2ccc(Cl)cc2O)C[C@H]1CCC(=O)O | -4% | 0.4
Cc1csc(Nc2ccc(NC(=O)Cn3cncn3)cc2)n1 | -8% | 1.68
CC(CNC(=O)C1CCCN(S(=O)(=O)c2cccs2)C1)c1ccccc1 (stereo unspecified) | 6% | -0.84
O=C(NC[C@H]1CCCC1(F)F)c1ccc2[nH]c(=O)[nH]c2c1 | -15% | 1.72
Cc1ncsc1CNC1CCN(C(=O)C(C)C)CC1C (stereo unspecified) | -13% | 1.17
Cc1nnsc1C(=O)N(Cc1nn(C)c2c1CCC2)C1CCCC1 | -8% | 1.59
C[C@@H](CCc1ccccc1)NC(=O)c1cc2n(n1)CCN(Cc1c(Cl)cccc1Cl)C2=O | -4% | 0.58
CN(C)[C@H]1[C@H](NC(=O)c2ccc(Oc3ccccc3)o2)[C@@H]2CCO[C@@H]21 | -17% | 1.68
COCC(=O)Nc1ccc(NC(=O)c2ccccc2-c2nccn2C)cc1Cl | -10% | 1.89
C[C@@H](c1cncs1)N(C)C(=O)c1cc2c(s1)CCCC2 | -5% | 0.71
CCN(Cc1ccccc1)C(=O)c1sc(-c2nnn(-c3ccc(C)c(C)c3)c2C)nc1C | -9% | 0.82
O=C(C1CCCC1)N1CCC[C@H](S(=O)(=O)N2CCCC2)C1 | 7% | -0.99
CN(Cc1ccon1)C(=O)[C@@]1(C)CCCN(C(=O)c2ccccc2)C1 | -11% | 1.85
C[C@H]1CCn2c(nc3cc(C(=O)NC4CCCCC4)ccc32)C1 | -10% | 1.38
COc1ccccc1C(=O)NCc1ccc2c(c1)CCN2C(=O)c1ccncc1 | -8% | 0.73

Compound | % Inhibition | Z score
CCc1sc(C(C)NC(=O)[C@@H](O)c2ccccc2)cc1C (stereo partly specified) | -12% | 2.19
COc1ccc(NC(=O)Nc2cnn(Cc3cn4ccccc4n3)c2)cc1 | -18% | 1.59
Cc1nc(C)c(CN2CCN(C)[C@]3(CCC(=O)N(CC4CC4)CC3)C2)s1 | 2% | -0.16
O=C(Cc1ncccc1F)NC[C@@H]1CCCC[C@H]1O | -1% | 0.1
Cc1ccc(Cl)cc1NC(=O)[C@H]1CCCN(c2nccc3sccc23)C1 | -1% | 0.21
Cc1ccsc1C(=O)N1CCC2(CC1)CCC(O)(CN(C)C)CC2 | -13% | 2.41
CC[C@@H](CO)NS(=O)(=O)c1cc(C)ccc1C | 3% | -0.66
C=CCC[C@H](NCC#N)c1ccccc1 | -8% | 0.96
Cc1nn(-c2ccc(F)cc2)c2nc(N3CCCN(C(=O)c4ccc(N(C)C)cc4)CC3)sc12 | -10% | 1.13
Cc1cc(N2CCN(c3cc(N4CCCC4)ncn3)CC2)n[nH]1 | 3% | -0.34
O=C(N[C@@H]1C[C@H](Cn2cc(C3CC3)nn2)[C@@H](O)[C@H]1O)c1ccc2c(c1)OCO2 | 1% | -0.19
O=C(NCc1ccc(F)cc1F)[C@@H]1CCCn2c(-c3ccccc3)cnc21 | 3% | -0.54
CC[C@@H](C(=O)N1CCCN(S(=O)(=O)N2CCCC2)CC1)n1cccn1 | -29% | 2.57
Nc1ccc(F)cc1-c1nc(C2CC2)no1 | 13% | -1.69
CO[C@H]1COCC[C@@H]1NC(=O)c1ccc(C)s1 | 0% | -0.01
CC1(C)COCCC[C@H]2CN(C(=O)Nc3cccc(Cl)c3)CC[C@H]2CC(=O)N(CC2CCC(F)(F)CC2)C[C@@H]1O | -3% | 0.49
Cc1cc(C)n(CCNS(=O)(=O)c2c(C)n[nH]c2C)n1 | 0% | 0.05
CN=C(NC1CCCCC1)N1CCCC1 | -13% | 1.28
CC(C)N1CCN2C(=O)c3ccccc3OCC[C@@H]3CC[C@H](O)[C@@H](CNC(=O)[C@@H]2C1)O3 | 3% | -0.4
Cc1ccc(CNC(=O)c2c(C)n[nH]c2C(C)C)c(C)c1 | -16% | 1.65
COc1nccc(Oc2ccccc2CN(C)C)c1C#N | 6% | -0.82
C[C@@H](c1cc2ccccc2[nH]1)N(C)CCC(=O)Nc1nccs1 | -21% | 2.67
COc1cccc(OCCCc2ccc(S(N)(=O)=O)cc2F)c1 | 12% | -1.64
CCOC(=O)c1cn(CCS(=O)(=O)NC)cc(Oc2ccccc2)c1=O | -17% | 2.2
c1ccc(-n2nccc2[C@H]2c3nc[nH]c3CCN2Cc2ccccn2)cc1 | -10% | 1.44
C=C(C)CN(CC)S(=O)(=O)N1CCCCC1 | -12% | 1.44
